The results in this text go back to PubChem BioAssay AID1645887 (National Center for Advancing Translational Sciences (NCATS), 2021).

Values joined by “and” are separate entries in the source; they are usually repeats but may differ in a detail not shown here. Equal entries are not always repeated. Among all 16,000 compounds or so, about 40 (0.2%) were called active. Another 1% or so got no clear call; they are omitted. Calls follow the shape of the dose curve; as a rule, active = well fitted activation curve with a large enough effect; inconclusive = small, poorly fitted or top-dose-only effect, or another doubt; inactive = no such curve, though single readings can be large or run the other way. The list shows a part of the results.
% is scaled to controls: 0 for no effect and ±100 for the full control effect.

The target of the experiment is Rap guanine nucleotide exchange factor 4 (Homo sapiens) (UniProt Q8WZA2). Nature of the experiment: Validation qHTS for agonist of cAMP-regulated guanine nucleotide exchange factor 4 (EPAC2).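 Also: exchange makes BODIPY-GDP fluorescence drop when released from Rap1B; series mostly up to about 150 µM.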 Particulars: EPAC2 Rap1B BODIPY-GDP exchange, fluorescence; activation: active compounds read high. In a few lines: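 Signal normalized against 6.5 mM cAMP as agonist control. Mix of EPAC2 (100 nM), RAP1B-BODIPY-GDP (250 nM) and GDP (50 uM) was read kinetically at 480/540 nm, every 5 min over 30 min, after 5 min room-temperature incubation with compound.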
Sequence of UniProt Q8WZA2 (Q8WZA2 whole entry, looked up): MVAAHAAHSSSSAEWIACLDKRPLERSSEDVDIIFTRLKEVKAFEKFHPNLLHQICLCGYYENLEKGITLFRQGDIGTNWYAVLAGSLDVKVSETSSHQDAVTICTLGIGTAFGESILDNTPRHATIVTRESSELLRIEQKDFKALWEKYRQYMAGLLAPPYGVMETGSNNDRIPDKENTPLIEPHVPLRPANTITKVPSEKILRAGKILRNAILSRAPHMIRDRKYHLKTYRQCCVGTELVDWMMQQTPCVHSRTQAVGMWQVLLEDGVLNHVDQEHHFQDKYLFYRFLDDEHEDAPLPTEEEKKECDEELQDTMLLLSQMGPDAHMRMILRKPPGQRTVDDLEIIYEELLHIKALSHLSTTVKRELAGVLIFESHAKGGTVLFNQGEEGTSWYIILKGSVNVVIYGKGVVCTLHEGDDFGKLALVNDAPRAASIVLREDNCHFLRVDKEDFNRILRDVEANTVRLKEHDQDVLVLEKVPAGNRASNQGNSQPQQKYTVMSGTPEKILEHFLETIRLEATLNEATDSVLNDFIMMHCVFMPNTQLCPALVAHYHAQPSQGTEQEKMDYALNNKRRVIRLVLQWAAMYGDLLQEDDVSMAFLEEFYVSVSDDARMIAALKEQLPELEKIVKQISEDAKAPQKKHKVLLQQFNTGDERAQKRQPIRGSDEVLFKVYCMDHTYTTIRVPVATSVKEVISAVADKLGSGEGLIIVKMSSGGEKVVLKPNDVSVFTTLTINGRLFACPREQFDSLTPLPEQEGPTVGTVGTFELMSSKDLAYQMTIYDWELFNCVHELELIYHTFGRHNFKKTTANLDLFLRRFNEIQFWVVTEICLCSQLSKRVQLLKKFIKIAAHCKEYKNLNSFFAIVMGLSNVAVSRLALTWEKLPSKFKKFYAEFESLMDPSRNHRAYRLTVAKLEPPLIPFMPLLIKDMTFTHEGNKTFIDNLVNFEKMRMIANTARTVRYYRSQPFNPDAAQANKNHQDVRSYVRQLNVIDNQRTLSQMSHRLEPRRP
For orientation: In qHTS, concentration-response curves come from the screen itself.
Take `CCCCCCC(C)(C)c1ccc([C@@H]2C[C@H](O)CC[C@@H]2CCCO)c(O)c1`: the activation is inactive: -42.2%.
Turning to `CC(=O)OC1CC2C(C)(C)C(O)C=C[C@@]2(C)C2CC[C@]3(C)C(=CC(=O)OC3c3ccoc3)[C@]12C` (some centres not stated), the activation is inactive: -3.95%.
For the molecule `CCOP(=S)(OCC)O/N=C(\C#N)c1ccccc1`, the activation is inactive: -7.89%.
For `C=CCN1CC[C@]23c4c5ccc(O)c4O[C@@H]2C(=O)CC[C@]3(O)[C@H]1C5`, the activation is inactive: 1.95%.
On to `N[C@@H]1C[C@H]1c1ccccc1`, for which the activation is inactive: -3.18%.
As for `CC(C)NCC(O)c1ccc([N+](=O)[O-])cc1` (configuration not stated), the activation was inactive: -8.47%.
For the molecule `CCC(Sc1ccccc1)C(=O)OC1CC2CCC(C1)N2C` (configuration not stated), the activation was inactive: 11.1%.
Turning to `COC(=O)[C@]1(C)CC[C@@]2(C)CC[C@@]3(C)C4=CC=C5C(=CC(=O)C(O)=C5C)[C@@]4(C)CC[C@@]3(C)C2C1` (some centres not stated), the activation was inactive: -27.3%.
As for `C[C@H](N)Cc1c[nH]c2ccc(O)cc12`, the activation is inactive: -5.24%.
`CNc1ccccc1C(=O)O`: the activation was inactive: -22.8%.
Regarding `CN(C(=O)Cc1ccc(Cl)c(Cl)c1)[C@@H](CN1CCCC1)c1cccc(OCC(=O)O)c1`, the activation is inactive: 3.86%.
As for `COc1nn(CSP(=S)(OC)OC)c(=O)s1`, the activation is inactive: 11.8%.
For the molecule `NC(N)=Nc1ccc2[nH]c3c(c2c1)C[C@]1(O)[C@@H]2Cc4ccc(O)c5c4[C@]1(CCN2CC1CC1)[C@@H]3O5`, the activation was inactive: -21.3%.
`CC(Cc1ccccc1)NCCn1cnc2c1c(=O)n(C)c(=O)n2C` (configuration not stated): the activation is inactive: 0.147%.
With `O[C@H]1[C@H](O)[C@@H](O)CN2CC[C@H](O)[C@H]12`, the activation was inactive: -1.3%.
For `CC1(C)C2C[C@@H](O)[C@]3(C)C(CC[C@@]4(C)[C@H](c5ccoc5)C[C@H]5O[C@]543)[C@@]2(C)[C@@H](O)C[C@H]1O` (some centres not stated), the activation was inactive: -15.9%.
For the molecule `CC(C)NC(=O)N1CC[C@@]2(CCCNC2)C1`, the activation was inactive: -10.2%.
Regarding `CN1C[C@@H](CO)C=C2c3cccc4[nH]cc(c34)CC21` (some centres not stated), the activation was inactive: 6.12%.
As for `C[C@]12CCC3C(CC[C@]4(O)C[C@@H](O)CC[C@]34C=O)[C@@]1(O)CC[C@@H]2C1=CC(=O)OC1` (some centres not stated), the activation was inactive: -19.3%.
As to `O=C(CC[N+](=O)[O-])OCC1OC(O)C(OC(=O)CC[N+](=O)[O-])[C@@H](OC(=O)CC[N+](=O)[O-])C1OC(=O)CC[N+](=O)[O-]` (some centres not stated), the activation is inactive: -12.9%.
With `CC1(C)C(O)CC(O)[C@]2(C)C1CC(O)[C@]1(C)C2CC[C@@]2(C)C(c3ccoc3)CC3OC312` (some centres not stated) the figure was inactive: -30.4%; with `Cn1c(CCCC(=O)O)nc2cc(N(CCCl)CCCl)ccc21`, inactive: -8.42%; with `COC1=CC=C2[C@H]3Cc4ccc(OC)c5c4[C@@]2(CCN3C)[C@H]1O5`, inactive: -19.8% and inactive: -6.03%.
Regarding `CN1CCc2cc(O)cc3c2C1Cc1ccc(O)c(O)c1-3` (configuration not stated), the activation is inactive: -14.6%.
With `NC(CP(=O)(O)O)C(=O)O` (configuration not stated) the figure was inactive: 3.11% and inactive: -16.1%; with `C=CCN1CC[C@]23c4c5ccc(O)c4O[C@H]2[C@@H](O)C=C[C@H]3[C@H]1C5`, inactive: -13.6%.
The figure for `CN1CCc2cc(O)cc3c2[C@H]1Cc1ccc(O)c(O)c1-3` is inactive: -24.9%; for `CN[C@@H](C)Cc1ccccc1` it is inactive: -12.1%.
As to `O=C1Nc2ccc(Cl)cc2C(c2ccccc2Cl)=NC1O` (configuration not stated), the activation was inactive: -14.3%.
Consider `C=C(C)[C@H]1CN[C@H](C(=O)O)[C@@H]1CC(=O)O`, for which the activation was inactive: -16.1%.
Consider `Clc1cncc(N2CCNCC2)n1`, for which the activation is inactive: -17.4% and inactive: -12.5%.
The figure for `CC(=O)OC1(c2ccccc2)CCN(CCc2ccccc2)CC1` is inactive: -20.8%; for `CCN(CC)CCc1c[nH]c2ccccc12` it is inactive: -3.73%; for `CC(C)(C)c1o[nH]c(=O)c1C[C@H](N)C(=O)O` it is inactive: -11.8%.
On to `COC1CC(=C(c2cccs2)c2cccs2)C[N+](C)(C)C1` (configuration not stated), for which the activation was inactive: 2.79%.
As to `CN1CCN(C(=O)O[C@H]2c3nccnc3C(=O)N2c2ccc(Cl)cn2)CC1`, the activation was inactive: -3.07%.
For `O=C(Cc1ccc(Cl)c(Cl)c1)N1CCCC[C@H]1CN1CCCC1`, the activation is inactive: -5.33%.
With `Oc1ccc2[nH]cc(CCCCN3CC=C(c4ccccc4)CC3)c2c1` the figure was inactive: -17.2%; with `NC(=O)c1cc([N+](=O)[O-])cc([N+](=O)[O-])c1`, inactive: -20.7%; with `COc1ccc2c(c1O)-c1c(OC)c(OC)cc3c1[C@H](C2)N(C)CC3`, inactive: -1.13%.
The figure for `O=CN1CCCCC1C1CC[C@H]2CCCCN2C1` (some centres not stated) is inactive: -4.68%; for `c1ccc2sc(C3(N4CCCC4)CCCCC3)cc2c1` it is inactive: -5.9%.
Take `O=C1CC[C@@]2(O)[C@H]3Cc4ccc(O)c5c4[C@@]2(CCN3CC2CC2)[C@H]1O5`: the activation was inactive: -10.5%.
On to `NC[C@H](CC(=O)O)c1ccc(Cl)cc1`, for which the activation is inactive: -12.7%.
With `C=CCSSCC=C` the figure was inactive: -14.8%.
As to `O[C@@H]1[C@H](O)[C@H]2[C@@H](O)CCN2C[C@@H]1O`, the activation is inactive: 11.8%.
`CC(C)NC(=O)N1CCC2(CCNCC2)CC1`: the activation was inactive: -16.9%.
The figure for `NCC(CC(=O)O)c1ccc(Cl)cc1` (configuration not stated) is inactive: -7.68% and inactive: -5.83% and inactive: -5.85%; for `CC(C)CN1CC2(CCN(C(=O)c3ccncc3)CC2)C1` it is inactive: -25.7%; for `CC(=O)O[C@H]1CC[C@H]2[C@@H]3CCC4=CC(=O)CCC4=C3C=C[C@]12C` it is inactive: -15.1%.
In the case of `O=c1cccc2n1CC1CNC[C@H]2C1`, the activation was inactive: -9.46% and inactive: -4.75%.
With `CC(C)[C@]12O[C@H]1[C@@H]1O[C@]13[C@]1(O[C@H]1C[C@H]1C4=C(CC[C@@]13C)C(=O)OC4)[C@@H]2O` the figure was inactive: -2.41%; with `CCOC(=O)CC(SP(=S)(OC)OC)C(=O)OCC` (configuration not stated), inactive: -7.43% and inactive: -16.9%; with `CN(C(=O)Cc1ccc(Cl)c(Cl)c1)C(CN1CCCC1)c1cccc(N=C=S)c1` (configuration not stated), inactive: 8.2%.
For `CCCN(CCC)CCc1c[nH]c2ccccc12`, the activation was inactive: -14.9%.
Turning to `CN1CC[C@]23c4c5ccc(O)c4O[C@H]2[C@@H](O)C=C[C@H]3[C@H]1C5`, the activation was inactive: -0.173%.
The figure for `CN(CCCC(=O)c1cccnc1)N=O` is inactive: -5.92%; for `CC(N)Cc1ccc(O)cc1` (configuration not stated) it is inactive: -8.41%; for `O=[N+]([O-])c1cc([N+](=O)[O-])c2ccccc2c1` it is inactive: -18%.
For the molecule `C[Se]C[C@H](N)C(=O)O`, the activation is inactive: -62.4%.
For `O=C1CN(O)C(c2ccccc2)=c2cc(Cl)ccc2=N1`, the activation is inactive: -3.12%.
With `CC(NC(C)(C)C)C(=O)c1cccc(Cl)c1` (configuration not stated), the activation was inactive: -14.5% and inactive: -14.1% and inactive: 7.78%.
As for `O=C(O)CCCO`, the activation was inactive: -7.29%.
As for `CN(C)CCCCCCN(C)C` (tested in a mixture with another compound), the activation was inactive: 3.09%.
With `COc1ccc(OC)c(C[C@H](C)N)c1`, the activation was inactive: 2.91%.
For `NCc1cccnc1`, the activation is inactive: -13.6%.
In the case of `CCCCC/C=C\C/C=C\C/C=C\C/C=C\CCCCCC(=O)NCCO`, the activation is inactive: -11.2%.
On to `C[C@H](N)Cc1cccc(C(F)(F)F)c1`, for which the activation was inactive: -16.3%.
Regarding `[S]=[Sb](=[S])[S][Sb](=[S])=[S]`, the activation is inactive: -13.9%.
With `Cc1cc(C)cc(C(=O)OC2C[C@H]3CC[C@@H](C2)N3C)c1` (some centres not stated) the figure was inactive: -7.15% and inactive: -16.5%; with `CN(C)[C@@H]1C(=O)C(C(N)=O)=C(O)[C@@]2(O)C(=O)C3=C(O)c4c(O)cccc4[C@@](C)(O)[C@H]3C[C@@H]12`, inactive: -6.87%.
Turning to `CCCC[N+]12C3CC(C(CC)[C@H]1O)[C@@H]1C(O)C4(C[C@@H]12)c1ccccc1N(C)C34` (some centres not stated), the activation is inactive: -7.53%.
